Test results published in paper PMC5539426.
No constants are given. Whether binding was seen depends on the method and setting. Binding seen in cells or lysates may run through a third protein. Some entries that bind do so weakly or less than the wild type. Tags and fused reporters may be left off the sequences shown.

What was measured:
Assay in all cases: pull-down; TatB, C-terminally His-tagged TatC and C-terminally FLAG-tagged substrate coproduced in E. coli DADE-P (or DADE); cells lysed, solubilised with digitonin 1 h at 4°C; TatC-His isolated on Ni-charged beads; wash 50 mM NaH2PO4 pH 8.0, 300 mM NaCl, 40 mM imidazole, 0.03% digitonin; elution with 700 mM imidazole; eluate blotted with anti-His, anti-TatB and anti-FLAG
[1] = target: T1, TatBC-His complex (TatB and C-terminally His-tagged TatC) (E. coli) (UniProt P69425+P69423)
T1 sequence 1: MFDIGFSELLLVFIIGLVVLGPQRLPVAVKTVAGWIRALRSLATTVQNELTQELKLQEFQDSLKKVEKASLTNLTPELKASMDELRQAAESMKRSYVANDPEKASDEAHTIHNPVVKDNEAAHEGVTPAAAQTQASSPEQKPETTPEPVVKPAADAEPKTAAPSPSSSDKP
T1 sequence 2: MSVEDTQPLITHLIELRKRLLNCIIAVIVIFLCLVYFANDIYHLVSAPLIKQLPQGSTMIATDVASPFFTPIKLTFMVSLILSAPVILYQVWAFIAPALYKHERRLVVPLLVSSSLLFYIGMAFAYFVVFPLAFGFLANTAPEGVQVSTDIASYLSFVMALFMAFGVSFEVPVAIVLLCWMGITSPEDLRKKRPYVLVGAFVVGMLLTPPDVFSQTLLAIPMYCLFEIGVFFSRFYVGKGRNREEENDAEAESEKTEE

[2] = target: T2, TatBC^F94D-His complex (TatB and C-terminally His-tagged TatC F94D) (E. coli) (UniProt P69425+P69423)
T2 sequence 1: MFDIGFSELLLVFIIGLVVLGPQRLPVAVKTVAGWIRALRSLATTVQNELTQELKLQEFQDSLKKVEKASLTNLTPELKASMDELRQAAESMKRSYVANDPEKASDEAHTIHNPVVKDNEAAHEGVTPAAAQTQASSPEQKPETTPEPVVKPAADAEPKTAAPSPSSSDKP
T2 sequence 2: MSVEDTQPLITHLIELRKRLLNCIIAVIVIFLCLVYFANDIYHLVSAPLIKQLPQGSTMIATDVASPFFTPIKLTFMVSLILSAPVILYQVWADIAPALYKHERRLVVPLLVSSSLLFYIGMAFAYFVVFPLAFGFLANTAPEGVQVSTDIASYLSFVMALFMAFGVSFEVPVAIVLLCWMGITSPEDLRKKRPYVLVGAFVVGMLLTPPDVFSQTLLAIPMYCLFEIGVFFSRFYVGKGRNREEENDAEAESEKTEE

[3] = target: T3, C-terminally His-tagged TatC (E. coli) (UniProt P69423)
T3 sequence: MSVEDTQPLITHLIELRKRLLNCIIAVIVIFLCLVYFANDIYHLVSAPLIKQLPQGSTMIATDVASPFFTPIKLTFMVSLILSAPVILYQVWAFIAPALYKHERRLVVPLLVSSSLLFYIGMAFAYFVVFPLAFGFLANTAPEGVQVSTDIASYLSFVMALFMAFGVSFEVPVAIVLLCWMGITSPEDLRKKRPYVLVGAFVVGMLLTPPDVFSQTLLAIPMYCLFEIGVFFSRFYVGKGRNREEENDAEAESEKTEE

B1: C-terminally FLAG-tagged SufI with its native signal peptide (protein, UniProt P26648 28-470)
chain: MSLSRRQFIQASGIALCAGAVPLKASAAGQQQPLPVPPLLESRRGQPLFMTVQRAHWSFTPGTRASVWGINGRYLGPTIRVWKGDDVKLIYSNRLTENVSMTVAGLQVPGPLMGGPARMMSPNADWAPVLPIRQNAATLWYHANTPNRTAQQVYNGLAGMWLVEDEVSKSLPIPNHYGVDDFPVIIQDKRLDNFGTPEYNEPGSGGFVGDTLLVNGVQSPYVEVSRGWVRLRLLNASNSRRYQLQMNDGRPLHVISGDQGFLPAPVSVKQLSLAPGERREILVDMSNGDEVSITCGEAASIVDRIRGFFEPSSILVSTLVLTLRPTGLLPLVTDSLPMRLLPTEIMAGSPIRSRDISLGDDPGINGQLWDVNRIDVTAQQGTWERWTVRADEPQAFHIEGVMFQIRNVNGAMPFPEDRGWKDTVWVDGQVELLVYFGQPSWAHFPFYFNSQTLEMADRGSIGQLLVNPVP
In the case of B1, the binding [1] is reported as “binds” and the binding [2] is reported as “no binding”.

B2: FLAG-tagged SufI S12L/G13L/I14L/A15L variant (protein, UniProt P26648 28-470)
chain: MSLSRRQFIQALLLLLCAGAVPLKASAAGQQQPLPVPPLLESRRGQPLFMTVQRAHWSFTPGTRASVWGINGRYLGPTIRVWKGDDVKLIYSNRLTENVSMTVAGLQVPGPLMGGPARMMSPNADWAPVLPIRQNAATLWYHANTPNRTAQQVYNGLAGMWLVEDEVSKSLPIPNHYGVDDFPVIIQDKRLDNFGTPEYNEPGSGGFVGDTLLVNGVQSPYVEVSRGWVRLRLLNASNSRRYQLQMNDGRPLHVISGDQGFLPAPVSVKQLSLAPGERREILVDMSNGDEVSITCGEAASIVDRIRGFFEPSSILVSTLVLTLRPTGLLPLVTDSLPMRLLPTEIMAGSPIRSRDISLGDDPGINGQLWDVNRIDVTAQQGTWERWTVRADEPQAFHIEGVMFQIRNVNGAMPFPEDRGWKDTVWVDGQVELLVYFGQPSWAHFPFYFNSQTLEMADRGSIGQLLVNPVP
In the case of B2, the binding [1] is reported as “binds”.

B3: FLAG-tagged SufI C17L/A18L/G19L/A20L variant (protein, UniProt P26648 28-470)
chain: MSLSRRQFIQASGIALLLLLVPLKASAAGQQQPLPVPPLLESRRGQPLFMTVQRAHWSFTPGTRASVWGINGRYLGPTIRVWKGDDVKLIYSNRLTENVSMTVAGLQVPGPLMGGPARMMSPNADWAPVLPIRQNAATLWYHANTPNRTAQQVYNGLAGMWLVEDEVSKSLPIPNHYGVDDFPVIIQDKRLDNFGTPEYNEPGSGGFVGDTLLVNGVQSPYVEVSRGWVRLRLLNASNSRRYQLQMNDGRPLHVISGDQGFLPAPVSVKQLSLAPGERREILVDMSNGDEVSITCGEAASIVDRIRGFFEPSSILVSTLVLTLRPTGLLPLVTDSLPMRLLPTEIMAGSPIRSRDISLGDDPGINGQLWDVNRIDVTAQQGTWERWTVRADEPQAFHIEGVMFQIRNVNGAMPFPEDRGWKDTVWVDGQVELLVYFGQPSWAHFPFYFNSQTLEMADRGSIGQLLVNPVP
For B3, the binding [1] was “binds”.

B4: TatB (protein, UniProt P69425 1-171)
chain: MFDIGFSELLLVFIIGLVVLGPQRLPVAVKTVAGWIRALRSLATTVQNELTQELKLQEFQDSLKKVEKASLTNLTPELKASMDELRQAAESMKRSYVANDPEKASDEAHTIHNPVVKDNEAAHEGVTPAAAQTQASSPEQKPETTPEPVVKPAADAEPKTAAPSPSSSDKP
With B4 the binding [3] was “binds”.

B5: C-terminally FLAG-tagged SufI with the S12L substitution in the signal peptide (protein, UniProt P26648 28-470)
chain: MSLSRRQFIQALGIALCAGAVPLKASAAGQQQPLPVPPLLESRRGQPLFMTVQRAHWSFTPGTRASVWGINGRYLGPTIRVWKGDDVKLIYSNRLTENVSMTVAGLQVPGPLMGGPARMMSPNADWAPVLPIRQNAATLWYHANTPNRTAQQVYNGLAGMWLVEDEVSKSLPIPNHYGVDDFPVIIQDKRLDNFGTPEYNEPGSGGFVGDTLLVNGVQSPYVEVSRGWVRLRLLNASNSRRYQLQMNDGRPLHVISGDQGFLPAPVSVKQLSLAPGERREILVDMSNGDEVSITCGEAASIVDRIRGFFEPSSILVSTLVLTLRPTGLLPLVTDSLPMRLLPTEIMAGSPIRSRDISLGDDPGINGQLWDVNRIDVTAQQGTWERWTVRADEPQAFHIEGVMFQIRNVNGAMPFPEDRGWKDTVWVDGQVELLVYFGQPSWAHFPFYFNSQTLEMADRGSIGQLLVNPVP
With B5 the binding [1] was “binds” and the binding [2] was “binds”.

B6: C-terminally FLAG-tagged SufI with the G13L substitution in the signal peptide (protein, UniProt P26648 28-470)
chain: MSLSRRQFIQASLIALCAGAVPLKASAAGQQQPLPVPPLLESRRGQPLFMTVQRAHWSFTPGTRASVWGINGRYLGPTIRVWKGDDVKLIYSNRLTENVSMTVAGLQVPGPLMGGPARMMSPNADWAPVLPIRQNAATLWYHANTPNRTAQQVYNGLAGMWLVEDEVSKSLPIPNHYGVDDFPVIIQDKRLDNFGTPEYNEPGSGGFVGDTLLVNGVQSPYVEVSRGWVRLRLLNASNSRRYQLQMNDGRPLHVISGDQGFLPAPVSVKQLSLAPGERREILVDMSNGDEVSITCGEAASIVDRIRGFFEPSSILVSTLVLTLRPTGLLPLVTDSLPMRLLPTEIMAGSPIRSRDISLGDDPGINGQLWDVNRIDVTAQQGTWERWTVRADEPQAFHIEGVMFQIRNVNGAMPFPEDRGWKDTVWVDGQVELLVYFGQPSWAHFPFYFNSQTLEMADRGSIGQLLVNPVP
With B6 the binding [1] was “binds” and the binding [2] was “binds”.

B7: C-terminally FLAG-tagged SufI with the A15L substitution in the signal peptide (protein, UniProt P26648 28-470)
chain: MSLSRRQFIQASGILLCAGAVPLKASAAGQQQPLPVPPLLESRRGQPLFMTVQRAHWSFTPGTRASVWGINGRYLGPTIRVWKGDDVKLIYSNRLTENVSMTVAGLQVPGPLMGGPARMMSPNADWAPVLPIRQNAATLWYHANTPNRTAQQVYNGLAGMWLVEDEVSKSLPIPNHYGVDDFPVIIQDKRLDNFGTPEYNEPGSGGFVGDTLLVNGVQSPYVEVSRGWVRLRLLNASNSRRYQLQMNDGRPLHVISGDQGFLPAPVSVKQLSLAPGERREILVDMSNGDEVSITCGEAASIVDRIRGFFEPSSILVSTLVLTLRPTGLLPLVTDSLPMRLLPTEIMAGSPIRSRDISLGDDPGINGQLWDVNRIDVTAQQGTWERWTVRADEPQAFHIEGVMFQIRNVNGAMPFPEDRGWKDTVWVDGQVELLVYFGQPSWAHFPFYFNSQTLEMADRGSIGQLLVNPVP
B7 was tested, and the binding [1] was “binds” and the binding [2] was “binds”.

B8: C-terminally FLAG-tagged SufI with the G19L substitution in the signal peptide (protein, UniProt P26648 28-470)
chain: MSLSRRQFIQASGIALCALAVPLKASAAGQQQPLPVPPLLESRRGQPLFMTVQRAHWSFTPGTRASVWGINGRYLGPTIRVWKGDDVKLIYSNRLTENVSMTVAGLQVPGPLMGGPARMMSPNADWAPVLPIRQNAATLWYHANTPNRTAQQVYNGLAGMWLVEDEVSKSLPIPNHYGVDDFPVIIQDKRLDNFGTPEYNEPGSGGFVGDTLLVNGVQSPYVEVSRGWVRLRLLNASNSRRYQLQMNDGRPLHVISGDQGFLPAPVSVKQLSLAPGERREILVDMSNGDEVSITCGEAASIVDRIRGFFEPSSILVSTLVLTLRPTGLLPLVTDSLPMRLLPTEIMAGSPIRSRDISLGDDPGINGQLWDVNRIDVTAQQGTWERWTVRADEPQAFHIEGVMFQIRNVNGAMPFPEDRGWKDTVWVDGQVELLVYFGQPSWAHFPFYFNSQTLEMADRGSIGQLLVNPVP
In the case of B8, the binding [1] is reported as “binds” and the binding [2] is reported as “binds”.
